Reference: PubChem BioAssay AID1631 (National Center for Advancing Translational Sciences (NCATS), 2009)
Screen size: about 260,000 compounds; about 890 (0.34%) were called active. This list was built around the results that the source calls inconclusive (neither active nor inactive); the mix of calls is not that of the screen. Calls follow the shape of the dose curve; as a rule, active = well fitted activation curve with a large enough effect; inconclusive = small, poorly fitted or top-dose-only effect; inactive = no such curve, though single readings can be large or run the other way. Potencies beside an inconclusive call are fits to weak or partial responses and may not hold up.

Target: Pyruvate kinase PKM (Homo sapiens) (UniProt P14618)
UniProt P14618, sequence (P14618 whole entry, looked up, canonical isoform): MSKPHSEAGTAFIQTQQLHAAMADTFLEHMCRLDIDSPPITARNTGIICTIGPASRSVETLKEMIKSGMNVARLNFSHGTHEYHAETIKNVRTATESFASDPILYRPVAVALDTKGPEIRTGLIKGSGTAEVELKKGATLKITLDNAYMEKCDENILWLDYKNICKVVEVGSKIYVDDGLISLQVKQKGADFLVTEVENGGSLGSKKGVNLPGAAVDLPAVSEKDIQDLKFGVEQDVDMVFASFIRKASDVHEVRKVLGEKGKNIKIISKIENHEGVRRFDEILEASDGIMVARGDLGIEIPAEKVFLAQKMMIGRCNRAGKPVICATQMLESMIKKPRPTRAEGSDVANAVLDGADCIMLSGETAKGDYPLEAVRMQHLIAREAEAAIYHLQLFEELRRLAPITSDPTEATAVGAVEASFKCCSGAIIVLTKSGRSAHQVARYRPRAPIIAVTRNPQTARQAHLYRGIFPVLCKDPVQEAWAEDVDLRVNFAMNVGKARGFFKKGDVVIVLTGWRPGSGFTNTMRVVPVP
Experiment: qHTS Assay for Activators of Human Muscle isoform 2 Pyruvate Kinase; also: nearly all actives have a fitted effect of over 55% in size
Details: purified PKM2, Kinase-Glo ATP luminescence; Potency: activation; activation: at 57.5 µM (top of the series), 0% is enzyme alone, no compound
Summary of the method: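 hPK-M2, >95% pure; 0.1 mM ADP / 0.5 mM PEP final; imidazole pH7.2 buffer w/ 7 mM MgCl2, 50 mM KCl; 1 h RT; Kinase-Glo lum. Intermediate enzyme activity for dual inhibitor/activator qHTS.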
% is scaled to controls: 0 for no effect and ±100 for the full control effect; potency is read from the fitted curve at half-maximal effect; tags tell the direction and shape of the fitted curve.

Potency, inconclusive:
Cc1ccc([N+](=O)[O-])cc1S(=O)(=O)Nc1ccc(O)c(Sc2ncn[nH]2)c1 11.2 µM [rising, partial curve], COc1cccc(C2/C(=C(/O)c3ccccc3)C(=O)C(=O)N2Cc2ccco2)c1 (configuration not stated) 39.8 µM [rising, single point], COc1ccc(C(=O)N/C(=C\c2ccco2)C(=O)NCCCn2ccnc2)cc1 0.631 µM [rising, single point], O=C(Nc1ccccc1Oc1ccccc1)C1CC1 39.8 µM [rising, single point], CC(C)Cn1c(N)c(C(=O)COC(=O)c2cc(-c3ccco3)nc3ccccc23)c(=O)n(C)c1=O 15.8 µM [rising, partial curve], CCS(=O)(=O)N1CCN(S(=O)(=O)c2ccccc2[N+](=O)[O-])CC1 5.01 µM [rising, partial curve], O=C(NCc1ccccn1)C1CCN(S(=O)(=O)c2cccs2)CC1 25.1 µM [rising, single point], O=C1c2ccccc2NC(c2cccc(F)c2)N1Cc1ccco1 (configuration not stated) 20 µM [rising, partial curve], O=C(CC1(O)C(=O)Nc2ccccc21)c1ccc(-n2cccc2)cc1 (configuration not stated) 14.1 µM [rising, partial curve], Cc1ccc(/C=N/N2CCN(Cc3cccc4ccccc34)CC2)o1 28.2 µM [rising, single point], Cc1ccc(/C=C2/C(=O)ON=C2c2ccccc2)o1 35.5 µM [rising, partial curve], Cc1csc(SCC(=O)N2CCN(S(=O)(=O)c3ccc(Cl)cc3)CC2)n1 6.31 µM [rising, full curve], O=C(c1ccco1)[C@@H]1[C@@H]2C(=O)N(c3ccc(F)cc3)C(=O)[C@@H]2[C@H]2C=Cc3ccccc3N21 7.94 µM [rising, partial curve], O=C(NCCc1ccccc1)/C(=C/c1ccco1)c1ccccc1 3.98 µM [rising, full curve], Cc1ccccc1N1CCN(S(=O)(=O)c2nnc(NC(=O)CC(C)C)s2)CC1 22.4 µM [rising, single point], COc1ccccc1NS(=O)(=O)c1ccc(C(=O)OCC(=O)NCc2ccco2)cc1 28.2 µM [rising, single point], O=C(CCN1CCN(c2ccccc2)CC1)N/N=C/c1ccc(O)c(O)c1O 10 µM [rising, partial curve], COc1ccc2nc(NC(=O)CCNC(=O)c3ccccc3Cl)sc2c1 6.31 µM [rising, single point], Cc1ccc(OS(=O)Nc2cccc3nccnc23)cc1 (configuration not stated) 25.1 µM [rising, single point], COc1ccc(CN(C(=O)/C=C/c2ccco2)C2CCS(=O)(=O)C2)cc1 (configuration not stated) 22.4 µM [rising, single point], C=CCn1c(SCC(=O)NCCCC)nc2scc(-c3ccco3)c2c1=O 14.1 µM [rising, partial curve], COc1ccc(/C=C/C(=O)Nc2ccccc2C(F)(F)F)cc1OC 39.8 µM [rising, single point], Cc1ccc(NC(=O)CN2C(=O)S/C(=C/c3ccc(O)c([N+](=O)[O-])c3)C2=O)cc1C 35.5 µM [rising, single point], NS(=O)(=O)c1ccc(CCNC(=O)C2CCCO2)cc1 (configuration not stated) 10 µM [rising, partial curve], O=C(Nc1cccc(C(=O)N2CCN(Cc3ccccc3)CC2)c1)c1ccccc1 22.4 µM [rising, single point], S=C(NCCc1ccccc1)Nc1cnc2ccccc2c1 28.2 µM [rising, single point], CCCCC1=CC2=C(c3ccco3)C(=O)C(C)(OC(=O)c3ccc(OC)cc3)C(=O)C2=CN1CC(C)C (configuration not stated) 3.98 µM [rising, single point], O=C(Nc1ccccc1)c1nnsc1S(=O)(=O)c1ccc(Cl)cc1 35.5 µM [rising, single point], CN(C)S(=O)(=O)c1ccc(Cl)c(NC(=O)CSc2nnnn2-c2ccc(O)cc2)c1 6.31 µM [rising, full curve, poor fit], Cc1ccn2c(=O)c(C(=O)O)cnc2c1 28.2 µM [rising, single point], Cc1ccc(C(=O)/C=C/C(=O)c2ccc(C)cc2)cc1 0.794 µM [rising, full curve], CC(=O)c1c(C)[nH]c(C(=O)Nc2ccc(Cl)cc2)c1C 14.1 µM [rising, partial curve], COc1ccc(NS(=O)(=O)c2cccc(C(=O)N/N=C/c3ccc(O)cc3)c2)cc1 39.8 µM [rising, single point], CC(=O)Nc1ccc(NS(=O)(=O)c2ccc(C)cc2)cc1[N+](=O)[O-] 28.2 µM [rising, single point], CC(=O)N1CCCc2cc(S(=O)(=O)Nc3cccc(C)c3C)ccc21 31.6 µM [rising, single point], O=C1CC2C(=O)NCCN2C(=NC(=O)c2ccccc2)N1 (configuration not stated) 39.8 µM [rising, single point], CC(=O)N1N=C(c2ccc(C)cc2)CC1c1ccc2c(c1)OCO2 (configuration not stated) 22.4 µM [rising, partial curve], Cc1ccc(-c2nn(-c3ccccc3)cc2C2SCC(=O)N2Cc2ccccc2)o1 (configuration not stated) 5.62 µM [rising, partial curve], CCN(c1ccccc1)S(=O)(=O)c1ccc(Cl)c(NC(=O)COC(=O)c2cc(O)c3ccccc3c2O)c1 20 µM [rising, partial curve], O=C(c1ccccc1F)N1CCN(S(=O)(=O)c2ccc3c(c2)OCCO3)CC1 10 µM [rising, partial curve], Cc1c(OC(C)C(=O)NC(Cc2c[nH]c3ccc(O)cc23)C(=O)O)ccc2c1oc(=O)c1ccccc12 (configuration not stated) 0.708 µM [rising, single point], Cc1ccc(N2C(=O)CC(Sc3ccccc3C(=O)O)C2=O)cc1 (configuration not stated) 6.31 µM [rising, partial curve]

Potency, active:
Cc1ccc(-n2c(=O)[nH]c3c(C(N)=O)nc(-c4ccc(C)o4)nc32)cc1 14.1 µM, O=C(NCc1ccco1)/C(=C\c1cccs1)NC(=O)c1ccco1 28.2 µM, Clc1ccccc1Cn1nnc2c(N3CCCC3)ncnc21 15.8 µM, O=C(c1ccc(Cn2cc(Cl)cn2)cc1)N1CCN(c2ccccc2)CC1 15.8 µM, CC(=O)CCc1oc2ccc(NC(C)=O)cc2c1-c1ccc(C)o1 10 µM, Cc1ccc(S(=O)(=O)N2CCN(C(=O)CSc3ccc(F)cc3)CC2)cc1 12.6 µM, CC(=O)N1N=C(c2ccc(Cl)cc2)CC1c1ccco1 (configuration not stated) 25.1 µM, CC(O)c1nc2ccccc2n1Cc1nnc(-c2ccc(Cl)cc2)o1 (configuration not stated) 7.94 µM

Potency, inactive:
CCCC(C(=O)NC1CCCC1)N(C(=O)Cn1nnc(-c2ccc(C)o2)n1)c1cccc(O)c1 (configuration not stated), COc1ccc(Cl)cc1NC(=S)NN1CCOCC1, CCC(C)NC(=S)Nc1ccc2nc(N3CCN(CC)CC3)cc(C)c2c1 (configuration not stated), Cc1cccc(C)c1NC1=NC(=S)N(c2ccc(C(=O)O)cc2)C12CCCCC2, COc1cc(C(=O)NC(=S)NNC(=O)[C@H]2C[C@@H]2c2ccccc2)cc(OC)c1OC, Cn1c(=O)[nH]c(=O)c2c1nc(Br)n2CCC(=O)c1ccccc1, N#Cc1c(NC(=O)c2cnccn2)sc2c1CCCC2, CCCC(=O)NC(Nc1c(C)n(C)n(-c2ccccc2)c1=O)C(Cl)(Cl)Cl (configuration not stated), Cc1ccc2c(C(=O)CN3CCC4(CC3)OCCO4)c(C)[nH]c2c1, CCOC(=O)C1=C(C)N=c2s/c(=C/c3cccc([N+](=O)[O-])c3O)c(=O)n2C1c1ccc(OC)cc1OC (configuration not stated), C=CCCC(=O)Nc1nc(C)c(-c2csc(Nc3ccccc3OC)n2)s1, C#CCn1c(=NC(=O)c2ccc(S(=O)(=O)N3CCc4ccccc4C3)cc2)sc2cc(S(N)(=O)=O)ccc21, CCOc1cc2[nH]c(=O)n(CCCCC(=O)N3CCCCCC3)c(=O)c2cc1OCC, O=C(CSc1ncnc2c1nnn2Cc1ccccc1F)NCC1CCCO1 (configuration not stated), CCOc1ccc(S(=O)(=O)Nc2cc(SCC(=O)O)c(O)c3ccccc23)cc1, COc1cc2c(cc1OC)CN(C(=O)Cn1ccccc1=O)CC2, CCc1n[nH]c(=S)n1/N=C/c1ccc(N(CC)CC)cc1, COc1ccc(NC(=S)NC(=O)C2CCCCC2)cc1, CCS(=O)(=O)N1CCN(CC(=O)NC2CCCCC2)CC1, O=C(NCCc1ccccc1)/C(=N\O)c1ccccc1, COc1ccc(CN2CCN(C(=O)c3cc(OC)c(OC)c(OC)c3)CC2)cc1OC

activation, inactive:
COc1cccc(NC(=S)NC(=O)Cc2ccc(Cl)cc2)c1 -7.19% [at 11.5 µM, 0% is enzyme alone, no compound]
